According to ChEMBL document CHEMBL4888484, “Replenishing the malaria drug discovery pipeline: Screening and hit evaluation of the MMV Hit Generation Library 1 (HGL1) against asexual blood stage Plasmodium falciparum ,using a nano luciferase reporter read-out” (2022):
“And” between values parts separate entries of the source, which are not always exact repeats. Equal values may be shown once. The campaign covered roughly 150,000 compounds. About 540 (0.36%) showed an effect of 50% or more. The list shows a part of the results.

System: Plasmodium falciparum
Assay: Primary screen in NF54 nanoGlo assay, in single point, at 2uM, 72h; a lower Z score goes with more inhibition
Format: functional, Erythrocyte
Details: timepoint 72 hour

Structure (SMILES): Cc1c(Cl)cccc1C(=O)N1CC(C(C)(C)O)C1
- % Inhibition: 16%
- Z score: -1.8

Structure (SMILES): NCc1nc(C(=O)N2CCN(c3ccccc3F)CC2)cs1
- % Inhibition: -9%
- Z score: 1.35

Structure (SMILES): Cc1scc(CCNC(=O)CN2CC[C@H](N(C)C)C2)c1C
- % Inhibition: -4%
- Z score: 0.65

Structure (SMILES): COc1ccc(C(=O)N[C@H]2CC(=O)N(C(C)C)C2=O)cn1
- % Inhibition: -16%
- Z score: 2.5

Structure (SMILES): Cc1cc(C)cc(OCc2nc(CN(C(=O)c3cccc(C)c3)C3CC3)cs2)c1
- % Inhibition: -2%
- Z score: 0.34

Structure (SMILES): Cc1ncc(C)c(N2CCC(CNC(=O)[C@@H]3CCCCN3C)CC2)n1
- % Inhibition: -11%
- Z score: 1.84

Structure (SMILES): O=C(NC[C@@H]1CCCO1)c1cnc(Cc2c(Cl)cccc2Cl)nc1O
- % Inhibition: -5%
- Z score: 0.69

Structure (SMILES): Cc1ncsc1CCN(C)Cc1ccc2c3c(cccc13)C(=O)OC2
- % Inhibition: -20%
- Z score: 1.86

Structure (SMILES): NCCOc1ccc(F)cc1C(=O)N(Cc1cccnc1)C1CCCCC1
- % Inhibition: 9%
- Z score: -1.18

Structure (SMILES): Cc1csc(C[C@H]2CCN(C(=O)c3ccc4cc[nH]c4n3)C2)n1
- % Inhibition: -2%
- Z score: 0.26

Structure (SMILES): Cc1ccccc1CNC(=O)CCS(=O)(=O)c1ccc2c(c1)CC(=O)N2C
- % Inhibition: -7%
- Z score: 0.87

Structure (SMILES): N=C1CCCN1c1ccc(Cl)c(Cl)c1
- % Inhibition (2 µM): -2% and -4%
- Z score (2 µM): 0.2 and 0.51

Structure (SMILES): CC(C)[C@@H](C(=O)Nc1cnc2c(c1)CCCC2)N1CCCS1(=O)=O
- % Inhibition: -7%
- Z score: 0.86

Structure (SMILES): CCCc1ncc(C(=O)O[C@@H](C)Cc2cccnc2)s1
- % Inhibition: -20%
- Z score: 3.8

Structure (SMILES): O=C(NCCc1cscn1)c1coc(CN2CCc3ccccc3C2)n1
- % Inhibition: 5%
- Z score: -0.7

Structure (SMILES): Cn1c(N2CCN(C(=O)Cc3ccccc3)CC2)cc(=O)n(C)c1=O
- % Inhibition: -6%
- Z score: 1.02

Structure (SMILES): CCC(=O)N1CCCN(S(=O)(=O)C2CCCC2C)CC1 (stereo not drawn)
- % Inhibition: -6%
- Z score: 1.13

Structure (SMILES): c1nc(N2CCOCC2)ncc1CNCc1nnc2n1CCCCC2
- % Inhibition: -7%
- Z score: 0.59

Structure (SMILES): Cc1nc([C@H]2CCN(C(=O)Nc3c(C)noc3C(C)C)C2)n[nH]1
- % Inhibition: -4%
- Z score: 0.6

Structure (SMILES): CN(CCCNC(=O)Cc1n[nH]c(=O)c2ccccc12)Cc1ccccc1
- % Inhibition: 37%
- Z score: -5.3

Structure (SMILES): COCCN(C)Cc1ncnn1-c1cccc(C)n1
- % Inhibition: -17%
- Z score: 3.18

Structure (SMILES): CN(C)c1ccc(C(=O)N(Cc2ccccc2)[C@H](CO)Cc2cnc[nH]2)cn1
- % Inhibition: 6%
- Z score: -1.1

Structure (SMILES): COc1ccccc1NC(=O)c1ccc(NC(=O)COC(=O)CCNS(=O)(=O)c2ccc3ccccc3c2)cc1
- % Inhibition: -7%
- Z score: 1.14

Structure (SMILES): CCOc1ccc(-c2cc(C(=O)N(Cc3cccc(F)c3)[C@H]3CCS(=O)(=O)C3)no2)cc1
- % Inhibition: 5%
- Z score: -0.55

Structure (SMILES): O=S(=O)(NC1(c2cccc(Cl)c2)CC1)N1CCCCC1
- % Inhibition: 0%
- Z score: 0.01

Structure (SMILES): CN=C(NCc1ccccc1)NC(C)C
- % Inhibition: 0%
- Z score: -0.03

Structure (SMILES): CCN(CC)C(=O)c1sc2c(c1C)c(=O)n(-c1ccc(C)c(C)c1)c(=O)n2CC(=O)NC[C@H]1CCCO1
- % Inhibition: 15%
- Z score: -1.82

Structure (SMILES): O=C(NCCc1nc2c(c(C(F)(F)F)n1)CCCC2)c1ccsc1
- % Inhibition: -4%
- Z score: 0.57

Structure (SMILES): CCN1CCN(C(=O)c2cc(-c3ccc4c(c3)CCO4)no2)C(C)(C)C1=O
- % Inhibition: 5%
- Z score: -0.58

Structure (SMILES): O=C(N[C@H]1CC(=O)N(Cc2ccccc2Cl)C1)c1coc2c1C(=O)CCC2
- % Inhibition: 8%
- Z score: -1.48

Structure (SMILES): CO[C@H]1COC[C@H]1NC(=O)N1CCC2(CC(=O)c3ccccc3O2)C1 (stereo partly drawn)
- % Inhibition: -5%
- Z score: 0.43

Structure (SMILES): CN(C)C(=O)CN1CCN(C(=O)Cn2ccc(C(F)(F)F)n2)CC1
- % Inhibition: -5%
- Z score: 0.63

Structure (SMILES): COCc1ncc(C)n1C[C@H]1CCCN(C2CCCCCC2)C1
- % Inhibition: 3%
- Z score: -0.33

Structure (SMILES): CC[C@@H](C(=O)NC1CCCCC1)N1CCn2nc(C)cc2C1
- % Inhibition: -4%
- Z score: 0.55

Structure (SMILES): CCCC1(CCC)NC(=O)N(Cc2cccc3cccnc23)C1=O
- % Inhibition: -13%
- Z score: 2.15

Structure (SMILES): c1cnc2ccc(OCc3nc(CC4CC4)no3)cc2c1
- % Inhibition: 6%
- Z score: -0.77

Structure (SMILES): O=C(NCc1cccs1)C1CCOCC1
- % Inhibition: 7%
- Z score: -0.94

Structure (SMILES): N#Cc1nc(NC(=O)COC[C@H]2CCCO2)ccc1Br
- % Inhibition: -2%
- Z score: 0.38

Structure (SMILES): CCCS(=O)(=O)CC(=O)Nc1cc(Br)c(F)cc1F
- % Inhibition: -12%
- Z score: 1.43

Structure (SMILES): Cc1nn(C(=O)CCC(=O)N2CCC(C)(c3noc(-c4ccncc4)n3)CC2)c2ccccc12
- % Inhibition: 6%
- Z score: -0.77

Structure (SMILES): CCC(CC)C(=O)Nc1cc(C)cc(C)c1
- % Inhibition: 5%
- Z score: -0.64

Structure (SMILES): Cc1ccc(CN2C[C@H](O)[C@@H](F)C2)c2ccccc12
- % Inhibition: -12%
- Z score: 2.35

Structure (SMILES): COC[C@@H]1C[C@H](OC)CN1C(=O)c1cc(Cl)cn1C
- % Inhibition: -4%
- Z score: 0.48

Structure (SMILES): Cc1cc(OCCc2cc(Cl)c3c(c2)OCCCO3)nn1C
- % Inhibition: -5%
- Z score: 0.84

Structure (SMILES): C[C@H](NCCN1CCCC1=O)c1ccc(F)c(Cl)c1
- % Inhibition: -7%
- Z score: 0.96

Structure (SMILES): COC(=O)c1cccc(OC)c1N(C)C(=O)c1cccc(S(=O)(=O)N2CCCCC2)c1
- % Inhibition: -12%
- Z score: 1.89

Structure (SMILES): COc1cccc(-n2c(=O)n(CC3CC3)c(=O)c3c2ncn3Cc2ccc(F)cc2)c1
- % Inhibition: -14%
- Z score: 1.37

Structure (SMILES): CC(C)CNC(=O)C(=O)NCCCN1CCCC1=O
- % Inhibition: -10%
- Z score: 1.28

Structure (SMILES): Cc1nc(C)c(C(=O)N[C@H](c2nc3ccccc3n2C(C)C)C(C)C)s1
- % Inhibition: 3%
- Z score: -0.39

Structure (SMILES): CCCN(Cc1c(CC)nn(-c2ccc(OC)cc2)c1Oc1ccc(F)cc1F)C(=O)c1cccs1
- % Inhibition: -1%
- Z score: 0.2

Structure (SMILES): O=C(CCS(=O)(=O)Cc1csc(C2CC2)n1)N1CCOCC1
- % Inhibition: -1%
- Z score: 0.12

Structure (SMILES): CC(=O)N1CCC(NC(=O)N(Cc2ccccc2)Cc2nccs2)CC1
- % Inhibition: -2%
- Z score: 0.38

Structure (SMILES): CC(=O)N1CC[C@H](Cc2ncc(C)n2C(C)C)C1
- % Inhibition: -8%
- Z score: 0.96

Structure (SMILES): O=c1c2cnc3c(-c4ccccc4)cnn3c2ccn1C[C@H]1CCCO1
- % Inhibition: -25%
- Z score: 2.29

Structure (SMILES): O=C(NCc1cccnc1-c1ccccc1)c1cccc(Cl)c1
- % Inhibition: -2%
- Z score: 0.21

Structure (SMILES): Cc1ccsc1[C@H]1CCN(Cc2cccn2-c2ncccn2)C[C@@H]1O
- % Inhibition: 8%
- Z score: -1.32

Structure (SMILES): O=C(COc1ccc(F)cc1)Nc1noc(-c2ccccc2)n1
- % Inhibition: 4%
- Z score: -0.4

Structure (SMILES): CCc1nccn1CC(=O)NC(CC)[C@H]1C[C@H](O)C1 (stereo partly drawn)
- % Inhibition: -4%
- Z score: 0.87

Structure (SMILES): O=C(N1C[C@@H]2CC[C@H](O)[C@@H]2C1)C1(C(F)F)CCC1
- % Inhibition: -12%
- Z score: 1.19

Structure (SMILES): Nc1c(F)cc(Br)cc1F
- % Inhibition: -11%
- Z score: 2.06

Structure (SMILES): COc1cc(NC(=O)NCCCn2nc(C)nc2C)c2ncccc2c1
- % Inhibition: -14%
- Z score: 1.45

Structure (SMILES): CO[C@H]1[C@@H]2CC[C@H]1CN(Cc1ccccc1Cn1cccn1)C2
- % Inhibition: -2%
- Z score: 0.45

Structure (SMILES): Cc1ccc(CCNS(C)(=O)=O)c(C)c1
- % Inhibition: 3%
- Z score: -0.31

Structure (SMILES): COC(=O)c1c(C)[nH]c(C(=O)N2CCCCCC2)c1C
- % Inhibition: -7%
- Z score: 1.52

Structure (SMILES): COc1ccc(F)cc1C(NC(=O)c1csnc1N)[C@H]1C[C@@H](O)C1 (stereo partly drawn)
- % Inhibition: 3%
- Z score: -0.51

Structure (SMILES): CC(C)c1noc([C@H](C)NCc2cccc3cc[nH]c23)n1
- % Inhibition: 2%
- Z score: -0.34

Structure (SMILES): COc1ccc(-c2csc(NC(=O)CN3CCN(c4nccc(OC)n4)CC3)n2)c(OC)c1
- % Inhibition: 14%
- Z score: -1.84

Structure (SMILES): COc1ccc(NC(=O)N(C2CCOCC2)[C@H]2CCN(S(C)(=O)=O)C2)cc1OC
- % Inhibition: 34%
- Z score: -3.88

Structure (SMILES): Cc1cc(NCCCc2csc(N)n2)n2nccc2n1
- % Inhibition: -4%
- Z score: 0.71

Structure (SMILES): N#Cc1cccnc1N[C@H]1CC[C@H](c2nccc(O)n2)CC1
- % Inhibition: -5%
- Z score: 0.81

Structure (SMILES): COc1ccc(-c2cccc(C(N)=O)n2)c2ccccc12
- % Inhibition: 0%
- Z score: 0.09

Structure (SMILES): CCn1c(=O)c(C(=O)NCc2ccccn2)nn(-c2ccc(C)c(Cl)c2)c1=O
- % Inhibition: -3%
- Z score: 0.32

Structure (SMILES): CC1CCC2(CC1)N=C(c1ccccc1)C(=O)N2CC(=O)N[C@H]1CCc2ccccc21 (stereo partly drawn)
- % Inhibition: 39%
- Z score: -4.45

Structure (SMILES): Cn1cnnc1[C@@H]1CCCN1Cc1cnc(-c2ccccc2)o1
- % Inhibition: 3%
- Z score: -0.66

Structure (SMILES): Cc1ccc(C(=O)NC[C@H]2CCN(c3cnn(C)c(=O)c3)C2)c(O)c1
- % Inhibition: -12%
- Z score: 1.15

Structure (SMILES): CN(Cc1cc(-c2ccccc2)[nH]n1)C(=O)Cn1nnnc1CN1CCCC1
- % Inhibition: -8%
- Z score: 1.08

Structure (SMILES): O=C(c1cnccn1)N(C[C@H]1CCCO1)C1(C(=O)NC2CCCC2)CCCCC1
- % Inhibition: -8%
- Z score: 0.88

Structure (SMILES): Cc1cnn(CCCNC(=O)C2CCCCC2C(=O)N2CCCC2)c1 (stereo not drawn)
- % Inhibition: -10%
- Z score: 0.92

Structure (SMILES): COc1ccc(C(=O)N2CC(Oc3nc4ccccc4s3)C2)c(OC)c1
- % Inhibition: -17%
- Z score: 1.96

Structure (SMILES): Cc1nc(CNc2ncnc3c(F)cccc23)sc1C
- % Inhibition: -6%
- Z score: 0.79

Structure (SMILES): O=C(CCc1cccc2c1OCO2)NC[C@]12C[C@H]1COC21CCC1
- % Inhibition: -7%
- Z score: 1.28

Structure (SMILES): Cc1ccc(C(=O)C(=O)N[C@@]2(C)CCS(=O)(=O)C2)cc1
- % Inhibition: -6%
- Z score: 1.17

Structure (SMILES): C[C@@H]1Oc2cc(S(=O)(=O)N3CCN(C(=O)c4ccc(F)c(F)c4)CC3)c(Cl)cc2NC1=O
- % Inhibition: 6%
- Z score: -0.6

Structure (SMILES): COc1ccc(OCc2cc(C(=O)NCCc3ccccn3)n[nH]2)c(Cl)c1
- % Inhibition: -11%
- Z score: 2.21
